Experimental data: the supplement of paper PMC4967469
Lines with a small IC50 respond at low doses; fits outside the tested doses are given as limits. The AUC spans the tested range (256-fold, ending at the top dose) of the same fit; the more sensitive the line, the further below 1. For part of these data: Any top dose called inferred was derived from the fitted curves, not read from the paper.

Assays:
Test in all cases: Viability of human cancer cell lines after 72 h of drug (GDSC screen)
Tubastatin A = compound: CN1CCc2c(c3ccccc3n2Cc2ccc(C(=O)NO)cc2)C1 [Tubastatin A]; details: top dose 20 µM
Protocol: (§1)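 Human cancer cell lines in 384-well plates, medium with 10% serum, drug for 72 h over a 256-fold dose range (nine 2-fold or five 4-fold steps up to the top dose). Adherent lines were fixed and stained with the nucleic acid dye Syto60, suspension lines read with resazurin; signal relative to control wells, capped at 0 and 100%. One two-parameter sigmoid per drug and line, fitted in a mixed model over all curves with the slope shared within a line.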

IPA-3 = compound: Oc1ccc2ccccc2c1SSc1c(O)ccc2ccccc12 [IPA-3]; details: top dose 32 µM; top dose inferred
Protocol: as §1

CI-1040 = compound: O=C(NOCC1CC1)c1ccc(F)c(F)c1Nc1ccc(I)cc1Cl [CI-1040]; details: top dose 10 µM; top dose inferred
Protocol: as §1

ZG-10 = compound: CN(C)C/C=C/C(=O)Nc1ccc(C(=O)Nc2cccc(Nc3nccc(-c4cccnc4)n3)c2)cc1 [ZG-10]; details: top dose 10 µM; top dose inferred
Protocol: as §1

XL-880 = compound: COc1cc2c(Oc3ccc(NC(=O)C4(C(=O)Nc5ccc(F)cc5)CC4)cc3F)ccnc2cc1OCCCN1CCOCC1 [XL-880]; details: top dose 5.12 µM; top dose inferred
Protocol: as §1

Temozolomide = compound: Cn1nnc2c(C(N)=O)ncn2c1=O [Temozolomide]; details: top dose 30 µM
Protocol: as §1

Cell Line | AUC (Tubastatin A) | IC50 (Tubastatin A) [µM] | AUC (IPA-3) | IC50 (IPA-3) [µM] | AUC (CI-1040) | IC50 (CI-1040) [µM] | AUC (ZG-10) | IC50 (ZG-10) [µM] | AUC (XL-880) | IC50 (XL-880) [µM] | AUC (Temozolomide) | IC50 (Temozolomide) [µM]
SU8686 (pancreas, adherent) | 0.98 | > 20 | 0.981 | > 32 | 0.679 | 2.11 | 0.853 | 9.33 | 0.789 | 2.58 | 0.984 | > 30
RVH-421 (melanoma, adherent) | 0.922 | > 20 | 0.955 | > 32 | 0.547 | 0.882 | 0.777 | 5.64 | 0.63 | 0.832 | 0.949 | > 30
JURL-MK1 (chronic myeloid leukaemia, suspension) | 0.884 | > 20 | 0.921 | > 32 | 0.188 | 0.0735 | 0.777 | 3.99 | 0.38 | 0.15 | 0.976 | > 30
HuO9 (osteosarcoma, adherent) | 0.984 | > 20 | 0.981 | > 32 | 0.9 | > 10 | 0.607 | 1.27 | 0.619 | 0.706 | 0.981 | > 30
SNG-M (endometrium, adherent) | 0.984 | > 20 | 0.687 | 6.6 | 0.914 | > 10 | 0.579 | 1.02 | 0.622 | 0.687 | 0.983 | > 30
NCI-H2347 (lung adenocarcinoma, adherent) | 0.945 | > 20 | 0.775 | 15.5 | 0.845 | 9.67 | 0.726 | 3.19 | 0.689 | 1.22 | 0.98 | > 30
MDA-MB-175-VII (breast, adherent) | 0.983 | > 20 | 0.987 | > 32 | 0.882 | > 10 | 0.965 | > 10 | 0.986 | > 5.12 | 0.986 | > 30
H2461 (mesothelioma, adherent) | 0.982 | > 20 | 0.929 | > 32 | 0.953 | > 10 | 0.847 | > 10 | 0.829 | 4.34 | 0.98 | > 30
NCI-H1755 (lung adenocarcinoma, adherent) | 0.96 | > 20 | 0.984 | > 32 | 0.875 | > 10 | 0.76 | 4.05 | 0.394 | 0.156 | 0.976 | > 30
MFE-296 (endometrium, adherent) | 0.973 | > 20 | 0.807 | 18 | 0.932 | > 10 | 0.617 | 1.35 | 0.786 | 2.4 | 0.984 | > 30
HCC1569 (breast, adherent) | 0.96 | > 20 | 0.933 | > 32 | 0.976 | > 10 | 0.682 | 2.41 | 0.729 | 1.82 | 0.961 | > 30
HCC1419 (breast, adherent) | 0.952 | > 20 | 0.904 | > 32 | 0.905 | > 10 | 0.907 | > 10 | 0.979 | > 5.12 | 0.98 | > 30
RKN (ovary, adherent) | 0.981 | > 20 | 0.934 | > 32 | 0.572 | 0.998 | 0.758 | 3.67 | 0.779 | 2.21 | 0.984 | > 30
BT-483 (breast, adherent) | 0.971 | > 20 | 0.963 | > 32 | 0.898 | > 10 | 0.951 | > 10 | 0.961 | > 5.12 | 0.975 | > 30
NCI-H1623 (lung adenocarcinoma, adherent) | 0.967 | > 20 | 0.945 | > 32 | 0.802 | 6.27 | 0.759 | 4.24 | 0.809 | 3.44 | 0.983 | > 30
huH-1 (liver, adherent) | 0.983 | > 20 | 0.984 | > 32 | 0.889 | > 10 | 0.967 | > 10 | 0.984 | > 5.12 | 0.982 | > 30
LCLC-97TM1 (large cell lung carcinoma, adherent) | 0.832 | 14.5 | 0.866 | > 32 | 0.649 | 1.69 | 0.688 | 2.23 | 0.56 | 0.475 | 0.98 | > 30
SK-N-AS (neuroblastoma, adherent) | 0.85 | 19 | 0.913 | > 32 | 0.638 | 1.6 | 0.723 | 3 | 0.672 | 1.05 | 0.982 | > 30
HCC1395 (breast, adherent) | 0.966 | > 20 | 0.963 | > 32 | 0.967 | > 10 | 0.733 | 3.35 | 0.769 | 2.33 | 0.977 | > 30
SW1783 (glioma, adherent) | 0.991 | > 20 | 0.86 | 22.6 | 0.963 | > 10 | 0.845 | 6.18 | 0.65 | 0.795 | 0.989 | > 30
CHSA8926 (chondrosarcoma, adherent) | 0.976 | > 20 | 0.98 | > 32 | 0.935 | > 10 | 0.521 | 0.731 | 0.694 | 1.42 | 0.973 | > 30
OE21 (oesophagus, adherent) | 0.959 | > 20 | 0.817 | 27.1 | 0.833 | > 10 | 0.561 | 0.977 | 0.676 | 1.2 | 0.943 | > 30
